# In the BET-seq Pho4 binding data (Le et al. 2018):
# This is one part of the list. These are noisy estimates, calculated here from bound and input reads.
# Target: T1, Pho4 (S. cerevisiae) (UniProt P07270)
# T1 sequence: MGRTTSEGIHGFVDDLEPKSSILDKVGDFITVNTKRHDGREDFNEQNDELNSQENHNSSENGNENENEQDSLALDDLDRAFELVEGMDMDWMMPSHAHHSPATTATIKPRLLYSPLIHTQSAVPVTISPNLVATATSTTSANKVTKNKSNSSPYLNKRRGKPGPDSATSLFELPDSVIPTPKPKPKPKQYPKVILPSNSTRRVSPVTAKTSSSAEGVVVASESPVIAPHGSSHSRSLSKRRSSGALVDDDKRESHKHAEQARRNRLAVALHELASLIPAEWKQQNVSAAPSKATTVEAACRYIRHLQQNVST
# Experiment: relative binding free energy (BET-seq); higher = weaker binding
# Conditions: reference: library average
row,Sequence,relative binding free energy
1,TGCGTCACGTGTTGAG,0.15 kcal/mol
2,AGGTTCACGTGAGCGG,0.45 kcal/mol
3,TGCCACACGTGGGGTT,-0.09 kcal/mol
4,GGTAACACGTGCGGTA,0.07 kcal/mol
5,TAGGTCACGTGGTAAC,0.19 kcal/mol
6,TTTACCACGTGTGTGT,-0.15 kcal/mol
7,TGTCTCACGTGTTGAG,0.16 kcal/mol
8,GTTAACACGTGGGGAA,-0.07 kcal/mol
9,AGATGCACGTGGTTGA,-0.14 kcal/mol
10,GCTTACACGTGGTGGG,0.12 kcal/mol
11,AAGTCCACGTGGGAGT,-0.06 kcal/mol
12,AGTTTCACGTGTAATG,0.27 kcal/mol
13,GAGGTCACGTGTGGCG,0.09 kcal/mol
14,GTGTTCACGTGATGAC,0.6 kcal/mol
15,TGGATCACGTGTCAGA,0.39 kcal/mol
16,GGTTGCACGTGGCAGA,0.05 kcal/mol
17,TGAGACACGTGCGGAT,0.09 kcal/mol
18,AGCGTCACGTGTATGA,0.03 kcal/mol
19,AGGCCCACGTGTGTGG,-0.1 kcal/mol
20,GGTAACACGTGCTGGA,0.12 kcal/mol
21,TATGACACGTGGGACG,-0.04 kcal/mol
22,AGGTGCACGTGCTGAT,-0.05 kcal/mol
23,TCTAGCACGTGTGGTT,0.03 kcal/mol
24,ATAATCACGTGGAATA,0.27 kcal/mol
25,ATAATCACGTGGTGCT,-0.03 kcal/mol

row,Sequence,relative binding free energy
1,TTTAGCACGTGGTCAG,-0.32 kcal/mol
2,TATTTCACGTGCTGAT,0.15 kcal/mol
3,TAATACACGTGTATGG,0.16 kcal/mol
4,AGGTCCACGTGGGGCA,-0.17 kcal/mol
5,GGAAGCACGTGAAGCG,0.3 kcal/mol
6,GATAACACGTGGTCGG,-0.03 kcal/mol
7,TTAGGCACGTGGCGTA,-0.29 kcal/mol
8,TGAAGCACGTGGGCTT,-0.11 kcal/mol
9,AATATCACGTGTGTTA,-0.07 kcal/mol
10,TTCGACACGTGGTCTG,-0.02 kcal/mol
11,AGCGGCACGTGTGTAA,-0.05 kcal/mol
12,GTTTTCACGTGGTTTT,0.45 kcal/mol
13,TATGGCACGTGTACTG,-0.04 kcal/mol
14,TTGTGCACGTGATTGT,0.16 kcal/mol
15,GGCGACACGTGAGTGT,0.18 kcal/mol
16,GTGGTCACGTGGTAAC,0.15 kcal/mol
17,TGGGCCACGTGTGGTC,-0.08 kcal/mol
18,GGAGGCACGTGGTGAT,-0.1 kcal/mol
19,GTGCTCACGTGCGGTT,0.14 kcal/mol
20,TTGGTCACGTGTATCA,0.15 kcal/mol
21,ATCGGCACGTGTGGTC,-0.07 kcal/mol
22,GTGGTCACGTGTCAGT,0.14 kcal/mol
23,CAATTCACGTGAAGGT,0.4 kcal/mol
24,GGGGCCACGTGATGGT,0.16 kcal/mol
25,CGGGGCACGTGATGTT,0.07 kcal/mol

row,Sequence,relative binding free energy
1,AGTAGCACGTGAACGG,0.2 kcal/mol
2,TATTGCACGTGTGTTG,-0.06 kcal/mol
3,TTTGGCACGTGAGCAG,0.01 kcal/mol
4,TGGATCACGTGCATGT,0.25 kcal/mol
5,ATGTTCACGTGCGTGC,0.12 kcal/mol
6,GATTGCACGTGTAGTG,0.05 kcal/mol
7,TTTATCACGTGCTAGG,0.07 kcal/mol
8,AGCTACACGTGTTTTG,0.07 kcal/mol
9,AGGGGCACGTGTGATT,0.06 kcal/mol
10,TTGAACACGTGGGAGA,-0.16 kcal/mol
11,TATGTCACGTGTCGTT,0.19 kcal/mol
12,TATGGCACGTGGCCTT,-0.14 kcal/mol
13,TCGTACACGTGTGGGG,-0.08 kcal/mol
14,GGGATCACGTGGAGAG,0.28 kcal/mol
15,TGTCACACGTGTATGA,0.17 kcal/mol
16,TATTACACGTGTTGGG,0.19 kcal/mol
17,CGTACCACGTGGTTGG,-0.14 kcal/mol
18,GTGGGCACGTGAACGT,0.17 kcal/mol
19,CTTGGCACGTGCTGGA,-0.21 kcal/mol
20,ATATGCACGTGTAGGC,-0.11 kcal/mol
21,CAGGACACGTGGTGTT,-0.11 kcal/mol
22,TTAAGCACGTGTTTTT,0.02 kcal/mol
23,GATTTCACGTGAGGAG,0.47 kcal/mol
24,GGATTCACGTGCGGGC,0.29 kcal/mol
25,TGGGACACGTGAATAG,0.3 kcal/mol

row,Sequence,relative binding free energy
1,AGGGCCACGTGAGGCG,-0.02 kcal/mol
2,TGAGTCACGTGTTAAC,0.15 kcal/mol
3,TGTGACACGTGCAAGG,-0.14 kcal/mol
4,ATCGGCACGTGTTGTG,-0.06 kcal/mol
5,TTGTACACGTGGGCAT,-0.07 kcal/mol
6,TCCGGCACGTGGGGAG,-0.29 kcal/mol
7,ATAGGCACGTGGTGGC,-0.22 kcal/mol
8,TGAGTCACGTGTACGT,0.08 kcal/mol
9,TGTTACACGTGCTTCG,0.04 kcal/mol
10,AGACTCACGTGGTGTT,0.03 kcal/mol
11,GTTGTCACGTGGAAGC,0.17 kcal/mol
12,TGGGGCACGTGGGATA,-0.13 kcal/mol
13,AGTTGCACGTGAAGGC,0.24 kcal/mol
14,GTACTCACGTGTGGTC,0.27 kcal/mol
15,ATTTGCACGTGCATGG,0.03 kcal/mol
16,GTGTTCACGTGTAGAG,0.27 kcal/mol
17,GGTTCCACGTGTAGAG,0.12 kcal/mol
18,TACTTCACGTGATGGG,0.29 kcal/mol
19,CTTTGCACGTGAGTAT,0.12 kcal/mol
20,ATAAACACGTGTTGTG,-0.16 kcal/mol
21,TGTGGCACGTGGTCCG,-0.28 kcal/mol
22,GCGGGCACGTGGATGT,-0.03 kcal/mol
23,GGGAACACGTGAGTTA,0.35 kcal/mol
24,GGAGGCACGTGCGGTA,-0.2 kcal/mol
25,GTGTGCACGTGCTTTG,-0.09 kcal/mol

row,Sequence,relative binding free energy
1,GAGGGCACGTGCGGAT,-0.08 kcal/mol
2,GCATGCACGTGTGTAA,0.12 kcal/mol
3,TGGGGCACGTGGATTA,-0.16 kcal/mol
4,ATAGGCACGTGGTTTA,-0.16 kcal/mol
5,ATTCGCACGTGAGGGA,0.23 kcal/mol
6,TAGTGCACGTGAGTGC,0.12 kcal/mol
7,CTGAGCACGTGTGGCG,-0.13 kcal/mol
8,TGATACACGTGTCGGG,0.05 kcal/mol
9,GTGATCACGTGTCGGA,0.16 kcal/mol
10,TAGGCCACGTGGTTAG,-0.13 kcal/mol
11,TTCTGCACGTGCGTTG,0.05 kcal/mol
12,CTGATCACGTGGGAGG,0.07 kcal/mol
13,GCGTGCACGTGGACGG,0.06 kcal/mol
14,CTTATCACGTGAATTT,0.47 kcal/mol
15,GTCGGCACGTGGATTG,0.04 kcal/mol
16,GTGGCCACGTGGGCCG,-0.11 kcal/mol
17,GATTTCACGTGTGAAG,0.5 kcal/mol
18,AGCAACACGTGGGGAG,0.09 kcal/mol
19,TAAGGCACGTGGAGCG,-0.02 kcal/mol
20,ATCGTCACGTGGGAGT,-0.05 kcal/mol
21,CGGATCACGTGGAAGG,0.27 kcal/mol
22,ACTGGCACGTGGTGTT,-0.2 kcal/mol
23,TTCTGCACGTGAGATA,0.38 kcal/mol
24,GAGTGCACGTGGCGCG,-0.01 kcal/mol
25,GTGGACACGTGGGGGC,-0.04 kcal/mol

row,Sequence,relative binding free energy
1,TTAGACACGTGGGTAT,-0.03 kcal/mol
2,TTTTTCACGTGAAGAG,0.49 kcal/mol
3,GTTTTCACGTGTACTG,0.32 kcal/mol
4,CGTGACACGTGTCTGT,-0.05 kcal/mol
5,GTTGGCACGTGTAGGA,0.09 kcal/mol
6,ATTTGCACGTGATCTT,-0.07 kcal/mol
7,GAAATCACGTGGAGGG,0.15 kcal/mol
8,GGTAGCACGTGTCTTA,0 kcal/mol
9,GGGTACACGTGGGCCG,-0.08 kcal/mol
10,AGTATCACGTGGAGGT,0.09 kcal/mol
11,TGTGCCACGTGAGTTA,0.14 kcal/mol
12,GTTAGCACGTGGTAAA,-0.12 kcal/mol
13,TGTGACACGTGCTATG,-0.07 kcal/mol
14,GGCAACACGTGGGTTG,-0.13 kcal/mol
15,AAGTGCACGTGATTGG,-0.02 kcal/mol
16,GGCGCCACGTGAGTGG,0.08 kcal/mol
17,ATTGGCACGTGATAAA,0.01 kcal/mol
18,GGGGGCACGTGACACG,-0.1 kcal/mol
19,ATCGGCACGTGATGTA,0.08 kcal/mol
20,TATAACACGTGTGGAT,0.12 kcal/mol
21,GTTATCACGTGGCCGT,0.26 kcal/mol
